# Data published in a collection of fitness landscapes (doi:10.1038/s41467-024-54723-y).
# Over roughly 18,000 sequences, “TetR repression strength (sort-seq, GFP reporter)” has its median near 0.23; the highest 2% begin near 0.68. Some of the results follow.
# Target: TetR (class B, Tn10) (UniProt P04483)
# Test: TetR repression strength (sort-seq, GFP reporter) (relative to tetO2 = 1); higher = stronger repression
# Settings: E. coli
# How it was run: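 In LB with 50 µg/mL chloramphenicol, E. coli SIG10-MAX holding a low-copy library with eight randomized operator positions between a constitutive promoter and sfGFP, plus constitutive TetR, grew for 5 h at 37 °C. FACS then sorted 10^6 cells into 13 fluorescence bins for Illumina sequencing of each bin. Repression strength equals the top bin index plus one less the read-weighted mean bin, normalized to the unaltered operator. Values from three independent transformations were averaged when reads were ≥30 in every replicate and the CV was ≤0.5.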
# Chain of UniProt P04483 (P04483 whole entry): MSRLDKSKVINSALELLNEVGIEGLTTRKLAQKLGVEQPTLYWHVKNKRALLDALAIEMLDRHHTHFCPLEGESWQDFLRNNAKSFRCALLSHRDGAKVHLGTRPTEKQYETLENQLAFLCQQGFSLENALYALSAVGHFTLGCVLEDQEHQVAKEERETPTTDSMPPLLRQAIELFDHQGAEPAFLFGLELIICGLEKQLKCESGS
row,Sequence,TetR repression strength
1,TCCCGTTAAGTGTCTGAGA,0.183
2,TCCCAACTAGTAACGGAGA,0.3
3,TCCCGTTTAGTTCCGGAGA,0.148
4,TCCCCAAGAGTTGCAGAGA,0.406
5,TCCCAACTAGTGTCGGAGA,0.141
6,TCCCCACGAGTTGTGGAGA,0.307
7,TCCCCGGTAGTACACGAGA,0.0237
8,TCCCGGCCAGTCAATGAGA,0.232
9,TCCCACGCAGTTTGCGAGA,0.196
10,TCCCGTGCAGTGAGCGAGA,0.166
11,TCCCATGGAGTGATCGAGA,0.243
12,TCCCACCAAGTACGCGAGA,0.287
13,TCCCCGGTAGTGTATGAGA,0.173
14,TCCCTATAAGTTCCAGAGA,0.375
15,TCCCCCCGAGTGGGAGAGA,0.148
16,TCCCGAGGAGTATGAGAGA,0.497
17,TCCCATTAAGTCCCTGAGA,0.0859
18,TCCCCGCTAGTACAGGAGA,0.415
19,TCCCGGCGAGTCGGCGAGA,0.0436
20,TCCCGCTCAGTTGAGGAGA,0.16
21,TCCCCTCTAGTCCCGGAGA,0.253
22,TCCCCCGGAGTTTATGAGA,0.801
23,TCCCGAGAAGTGAATGAGA,0.318
24,TCCCTTGGAGTAGGAGAGA,0.214
25,TCCCTGTGAGTCCAGGAGA,0.352
26,TCCCGGCAAGTGTAAGAGA,0.126

row,Sequence,TetR repression strength
1,TCCCAATTAGTCATAGAGA,0.238
2,TCCCGGGTAGTCGCAGAGA,0.233
3,TCCCTTCGAGTGATAGAGA,0.559
4,TCCCGGTGAGTGGAAGAGA,0.328
5,TCCCAGCGAGTAATTGAGA,0.227
6,TCCCAAGTAGTGCGGGAGA,0.254
7,TCCCGTCCAGTACTCGAGA,0.518
8,TCCCAGAAAGTTGGTGAGA,0.355
9,TCCCTGCTAGTGAGGGAGA,0.173
10,TCCCACTGAGTGAGCGAGA,0.242
11,TCCCACCTAGTTTGGGAGA,0.238
12,TCCCCACTAGTTACCGAGA,0.386
13,TCCCTAATAGTAGCAGAGA,0.591
14,TCCCTGAGAGTGCAGGAGA,0.224
15,TCCCGGATAGTTGTTGAGA,0.264
16,TCCCTAGGAGTTTAAGAGA,0.183
17,TCCCCTGGAGTAGTAGAGA,0.266
18,TCCCGAGTAGTAGTTGAGA,0.0777
19,TCCCATGTAGTGGGTGAGA,0.0985
20,TCCCTGAGAGTTGCGGAGA,0.144
21,TCCCTGATAGTGAATGAGA,0.274
22,TCCCAATTAGTCTACGAGA,0.224
23,TCCCTTGAAGTGTTAGAGA,0.0572
24,TCCCTTTTAGTCTGAGAGA,0.336
25,TCCCATAGAGTGAGGGAGA,0.223
26,TCCCGTGAAGTATAAGAGA,0.213

row,Sequence,TetR repression strength
1,TCCCGGTCAGTTAACGAGA,0.448
2,TCCCCTACAGTGTGCGAGA,0.236
3,TCCCCATTAGTGGAGGAGA,0.275
4,TCCCTAACAGTTCTCGAGA,0.43
5,TCCCATTCAGTCGGTGAGA,0.549
6,TCCCGTCCAGTAGGGGAGA,0.179
7,TCCCGTCAAGTGATGGAGA,0.164
8,TCCCATACAGTCAACGAGA,0.153
9,TCCCGGTGAGTCCTGGAGA,0.254
10,TCCCTACTAGTAAGCGAGA,0.582
11,TCCCTAGGAGTGCGGGAGA,0.172
12,TCCCAAGGAGTGGAGGAGA,0.0531
13,TCCCAACTAGTGACGGAGA,0.204
14,TCCCAGACAGTACTCGAGA,0.444
15,TCCCTGTCAGTCGGGGAGA,0.154
16,TCCCGGCGAGTACTTGAGA,0.259
17,TCCCGATTAGTCATGGAGA,0.285
18,TCCCAGGTAGTGGTGGAGA,0.127
19,TCCCCTATAGTGTAGGAGA,0.0194
20,TCCCTAGGAGTTCATGAGA,0.163
21,TCCCAGGCAGTGGTCGAGA,0.127
22,TCCCTGGGAGTGATTGAGA,0.133
23,TCCCGCCTAGTTTGTGAGA,0.179
24,TCCCGTGAAGTGATTGAGA,0.129
25,TCCCTGCGAGTTTGTGAGA,0.202
26,TCCCAGCGAGTTGAGGAGA,0.264

row,Sequence,TetR repression strength
1,TCCCCAGGAGTGTGAGAGA,0.525
2,TCCCGGGGAGTCGAGGAGA,0.249
3,TCCCGTCGAGTTAAGGAGA,0.815
4,TCCCAAACAGTGGCTGAGA,0.216
5,TCCCGTCCAGTGAGGGAGA,0.183
6,TCCCGGAAAGTTGCGGAGA,0.12
7,TCCCGGGAAGTGGTGGAGA,0.438
8,TCCCTGTGAGTTCGGGAGA,0.369
9,TCCCCACGAGTGCGAGAGA,0.11
10,TCCCGCTCAGTTCTTGAGA,0.204
11,TCCCAATCAGTTGGTGAGA,0.142
12,TCCCATGAAGTGGCGGAGA,0
13,TCCCGGACAGTGGGCGAGA,0.0186
14,TCCCAGGGAGTCGCGGAGA,0.168
15,TCCCGCGGAGTGGTTGAGA,0.768
16,TCCCCTAAAGTTCGTGAGA,0.294
17,TCCCCATGAGTGAAAGAGA,0.42
18,TCCCATGTAGTGGAGGAGA,0.148
19,TCCCTTATAGTCCGCGAGA,0.267
20,TCCCATGAAGTTATCGAGA,0.174
21,TCCCCTATAGTTGTCGAGA,0.19
22,TCCCTAGCAGTGTTTGAGA,0.369
23,TCCCGATTAGTGTTTGAGA,0.418
24,TCCCGGAGAGTAGAGGAGA,0.153
